Among all 94,000 compounds or so, about 6,200 (6.6%) were called active. This list was built around the results that the source calls inconclusive (neither active nor inactive); the mix of calls is not that of the screen. Calls come from the whole dose curve; as a rule, active = well fitted inhibition curve with a large enough effect; inconclusive = small, poorly fitted or top-dose-only effect; inactive = flat fitted curve, though single readings scatter. Potencies of inconclusive entries are doubtful fits and often do not repeat.
Assay: Cytotoxic Profiling in HEK 293 Cell Line of Diverse Libraries Using Quantitative High-Throughput Screening; note: nearly all actives have a fitted effect of over 60% in size
Details: HEK 293 viability, ATP luminescence (CellTiter-Glo), 48-72 h; series mostly up to 115 µM
In short: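 CellTiter-Glo luminescence (cellular ATP) was read after 48 or 72 hr of compound exposure at 37 degree Celsius. Cells were HEK 293 plated at 250 cells/well.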
Potency is the fitted concentration of half-maximal effect; tags give direction and shape of the fitted curve.

Row | Structure (SMILES) | Potency
1 | CNc1ncc(C(=O)N[C@@H]2COCC[C@@H]2OCc2c(C)noc2C)cn1 | inactive
2 | O=C(O)CCC(=O)NC[C@H]1Cn2c(-c3ccc(Cl)cc3)cnc2CO1 | inactive
3 | CCNC(=O)C1CCc2ncc(-c3ccsc3)n2C1 (centres undefined) | inactive
4 | CC1=C[C@@H](CN2CCN(CCO)CC2)[C@H](C(C)C)C[C@H]1Cc1nnc(C)o1 | inactive
5 | Cc1ccccc1C(=O)N1CCN(c2cc(-c3ccc(F)cc3)[nH]n2)CC1 | inconclusive: 31.6 µM [inhibitor, partial curve, poor fit]
6 | CCNC(=O)N1CCC(Cc2ccc(C(=O)NCCN3CCCCC3)cc2)CC1 | inactive
7 | O=C(NCc1ccccc1Cl)C1CCc2nnc(C3CCN([S+](=O)([O-])c4ccccc4Cl)CC3)n21 (centres undefined) | inconclusive: 89.1 µM [inhibitor, single point]
8 | CN(CC#N)C(=O)c1cc(-c2cc(Cl)cc(Cl)c2)nc2c1cnn2C | inconclusive: 35.5 µM [inhibitor, full curve]
9 | Cc1nc2scc(CC(=O)NCCC(C)C)n2c(=O)c1-c1cc(C)n(-c2ccc(F)cc2)n1 | inactive
10 | CC(C)CCNC(=O)c1c(-c2cccnc2)cc(=O)n2c1CCCC2 | inactive
11 | CCOc1ccc(CC(=O)NC2CCN(c3cc(-c4ccccc4)[nH]n3)C2)cc1OCC (centres undefined) | inconclusive: 89.1 µM [inhibitor, single point]
12 | O=C(Nc1cccc(-n2cccn2)c1)C1CCCN1C(=O)CC1CC1 (centres undefined) | inactive
13 | COc1cc(-c2ccc(C(F)(F)F)cn2)cc2c1OCCNC2 | inactive
14 | O=C(NC1CC1)c1ccc2c(c1)OCCN(c1cccc(OC(F)(F)F)c1)C2 | inconclusive: 12.6 µM [inhibitor, full curve, poor fit]
15 | CCc1ccc(CNC(=O)c2noc(-c3ccc4c(c3)OCO4)n2)cc1 | inconclusive: 79.4 µM [inhibitor, single point]
16 | O=C(c1ccc2c(c1)OCO2)N1CCC2(C1)C(=O)N(c1ccccc1)c1ccccc12 (centres undefined) | inconclusive: 79.4 µM [inhibitor, partial curve]
17 | Cc1ccc(-c2ncc(C(=O)NCCC3=CCCCC3)c(-c3ccncc3)n2)cc1 | inconclusive: 79.4 µM [inhibitor, partial curve, poor fit]
18 | COc1ccc(-c2noc(-c3ccc(N4CCCOCC4)nc3)n2)cc1 | inconclusive: 12.6 µM [inhibitor, full curve]
19 | CC(C)C(=O)N1CCC(Oc2cccc(F)c2)C1 (centres undefined) | inactive
20 | CCc1nc2c(c(-c3ccc(Cl)cc3)n1)CCN(C(=O)c1ccccc1)CC2 | inconclusive: 89.1 µM [inhibitor, single point]
21 | Cc1ccc(-c2nnc(C3CN(C(=O)C4CCCCC4)CC34CCOCC4)o2)cc1 (centres undefined) | inactive
22 | COc1ccccc1Nc1ccnc(N2CCCC2C(=O)N2CCOCC2)n1 (centres undefined) | inactive
23 | O=C1CCCN1CCCN1C(=O)[C@H]2CN(Cc3ccccc3C(F)(F)F)C[C@H]2C1=O | inactive

Row | Structure (SMILES) | Potency
24 | COc1ccccc1-c1ccc(C(=O)N2CCC(C(=O)NC(C)C)CC2)cc1 | inconclusive: 35.5 µM [inhibitor, full curve]
25 | CC1=C[C@@H](CN2CCC(O)CC2)[C@H](C(C)C)C[C@H]1Cc1nnc(-c2ccccc2F)o1 | inconclusive: 35.5 µM [inhibitor, partial curve, poor fit]
26 | COCCn1c(=O)c(C(=O)N2CCN(C(=O)Cc3ccc(OC)cc3)CC2)nc2cccnc21 | inactive
27 | CCOc1ccc(C(=O)N2C[C@@H](CO)[C@H](C(=O)NC)C2)cc1 | inactive
28 | COc1ccc(-c2cccc(C(=O)NCc3ccccc3C(F)(F)F)c2)nn1 | inconclusive: 50.1 µM [inhibitor, partial curve, poor fit]
29 | Cc1ccc(-c2ccc3nnc(CNC(=O)CCC4CCCC4)n3n2)cc1 | inactive
30 | O[C@@H]1C[C@@H](c2nc(-c3ccc4c(c3)OCO4)no2)N(Cc2ccc(C(F)(F)F)cc2)C1 | inconclusive: 112 µM [inhibitor, partial curve, poor fit]
31 | CCN1CCC2(CC1)Cc1ccccc1CN(C(=O)C1CCCC1)C2 | inconclusive: 112 µM [inhibitor, single point]
32 | Cn1cnnc1-c1nn(C)c2c1CN(C(=O)CCc1nc3ccccc3s1)CC2 | inactive
33 | CCN1CCN(C(=O)c2nc3sccn3c2-c2cccc(C(F)(F)F)c2)CC1 | inactive
34 | CCn1nc(-c2cccc(-c3ccnn3C)c2)nc1N(C)C | active: 79.4 µM
35 | O=C(NCC1CN(C(=O)c2cccc(O)c2)CC12CN(c1ccccc1)C2)Nc1ccccc1 (centres undefined) | inconclusive: 56.2 µM [inhibitor, partial curve, poor fit]
36 | Cn1ccc(NC(=O)C2(C)COCc3cnc(Nc4ccccc4)nc32)n1 (centres undefined) | inconclusive: 112 µM [inhibitor, partial curve, poor fit]
37 | CC(C)C(=O)N1Cc2ccccc2CC2(CCCN(Cc3cccnc3)C2)C1 (centres undefined) | inactive
38 | O=C(c1ccc2c(c1)OCO2)N1CCC(Cc2nc(-c3ccccc3)no2)CC1 | active: 10 µM
39 | O=C1COCC2(CN(Cc3ccc4c(c3)CCO4)C2)CN1Cc1ccccc1 | inconclusive: 100 µM [inhibitor, partial curve]
40 | O=C(CCC[C@@H]1[C@H]2CCCN3CCC[C@@H](CN1C(=O)c1ccccc1)[C@@H]23)NCCCN1CCCCC1 | inconclusive: 79.4 µM [inhibitor, partial curve, poor fit]
41 | COc1ccc(CCC(=O)N2CCCCCCNC(=O)[C@@H]3C[C@@H](c4nc(C(C)C)no4)C[C@@H]32)cc1 | inactive
42 | CC1Oc2ccc(NC(=O)c3ccc(F)cc3F)cc2CN(Cc2ccccc2Cl)C1=O (centres undefined) | active: 50.1 µM
43 | O=C(NCc1cccc(C(F)(F)F)c1)c1nc2cccnc2n(CCc2ccccc2)c1=O | inactive
44 | Fc1ccccc1-c1cc2c(ccn2Cc2ccncc2)c(N2CCOCC2)n1 | active: 89.1 µM
45 | CC(C)N1C[C@H](O)C[C@H]1c1nnc2n1CCN(C(=O)c1ccsc1)CC2 | inactive
46 | CN(C)c1ccc(CN2CCC3(COc4ccccc4C(=O)N3)C2)cc1 (centres undefined) | inconclusive: 56.2 µM [inhibitor, partial curve, poor fit]

Row | Structure (SMILES) | Potency
47 | Cn1c2c(c3cc(F)ccc31)CN(C(=O)Nc1ccccc1)CC2 | inconclusive: 56.2 µM [inhibitor, partial curve, poor fit]
48 | CCC1(N2CCN(C(=O)c3cc(F)ccc3Cl)CC2)CCN(C(=O)NC)C1 (centres undefined) | inactive
49 | O=C(c1cc(F)ccc1F)N1CCC2(CC1)N=C(c1ccc(Cl)cc1)NO2 | inconclusive: 50.1 µM [inhibitor, partial curve, poor fit]
50 | CN(C)C[C@@H]1CN(Cc2ccccn2)C[C@H]1NS(=O)(=O)c1ccccc1F | inconclusive: 79.4 µM [inhibitor, partial curve]
51 | O=c1c2c(CO)c(-c3ccc(F)cc3)nn2ccn1Cc1ccccc1F | inconclusive: 50.1 µM [inhibitor, partial curve, poor fit]
52 | O=C(Cc1c[nH]c2ccccc12)NCC(=O)N1CCCCCCNC(=O)CC1c1ccccc1 (centres undefined) | inactive
53 | CN(Cc1ccc(N2CCNC2=O)cc1)CC1CCCN(CCc2ccc(F)cc2)C1 (centres undefined) | inconclusive: 22.4 µM [inhibitor, full curve, poor fit]
54 | O=C(Nc1ccc(Cl)cc1)N1CCCC1C(=O)N1CCCC1c1nc2ccncc2[nH]1 (centres undefined) | inactive
55 | N#Cc1cccnc1-c1ccc(C(=O)N2CCC(NC(=O)c3ccc(F)cc3)CC2)cc1 | inconclusive: 89.1 µM [inhibitor, partial curve, poor fit]
56 | O=C(Cc1cccc(F)c1)N1CCC(OCCOc2cccnc2)CC1 | inactive
57 | Cc1ccc(N2CC(c3noc(-c4ccsc4)n3)CC2=O)cc1 (centres undefined) | inconclusive: 79.4 µM [inhibitor, partial curve, poor fit]
58 | CC(=O)c1ccc(NC(=O)CN2C(=O)NC3(CCC(C(C)(C)C)CC3)C2=O)cc1 (centres undefined) | inconclusive: 63.1 µM [inhibitor, partial curve, poor fit]
59 | CC(=O)Nc1ccc(NC(=O)Cn2cccc2-c2nc(-c3ccccc3)no2)cc1 | inconclusive: 89.1 µM [inhibitor, single point]
60 | CCCC(O)CN1CCC(=O)N(C2CCCC2)Cc2cc(F)ccc21 (centres undefined) | inconclusive: 79.4 µM [inhibitor, partial curve, poor fit]
61 | CCC(=O)N1CCCN(Cc2ccc3c(c2)OCO3)c2ccccc21 | active: 44.7 µM
62 | CNC(=O)c1cn2cc(-c3ccc(OC)cc3)sc2n1 | active: 70.8 µM
63 | CCOc1ccc(C(=O)N2CCC3(CC2)CN(C2CCC2)CC3COC)cc1 (centres undefined) | inconclusive: 89.1 µM [inhibitor, partial curve, poor fit]
64 | COc1ccccc1CNC(=O)C1(c2ccc(NS(C)(=O)=O)cc2)CCCCC1 | inactive
65 | CCOc1ccccc1CN1CCC2(CCN(C(=O)COC)CC2)Oc2ccccc21 | inconclusive: 79.4 µM [inhibitor, partial curve, poor fit]
66 | COc1ncccc1-c1cc(-c2ccncc2)c2cncn2c1 | inconclusive: 79.4 µM [inhibitor, partial curve]
67 | Cc1ccc(NC(=O)Cn2c(-c3ccc(F)cc3)nc(C)c(CCO)c2=O)c(Cl)c1 | inconclusive: 31.6 µM [inhibitor, full curve]
68 | COC(=O)[C@@H]1Cc2nc[nH]c2CN1Cc1ccc(OC)c2ccccc12 | inconclusive: 70.8 µM [inhibitor, partial curve, poor fit]
69 | COc1ccccc1N1CCN(C(=O)CCc2conc2-c2ccc(C)cc2)CC1 | inconclusive: 50.1 µM [inhibitor, partial curve, poor fit]

From PubChem BioAssay AID1345083 (National Center for Advancing Translational Sciences (NCATS), 2018)
